First the molecules themselves.
B1: PhoQ; a variant is named by its letters at X, in order, P23837 (parent)
chain: MKKLLRLFFPLSLRVRFLLATAAVVLVLSLAYGMVALIGYSVSFDKTTFRLLRGESNLFYTLAKWENNKLHVELPENIDKQSPTMTLIYDENGQLLWAQRDVPWLMKMIQPDWLKSNGFHEIEADVNDTSLLLSGDHSIQQQLQEVREDDDDAEMTHSVAVNVYPATSRMPKLTIVVVDTIPVELKSSYMVWSWFIYVLSANLLLVIPLLWVAAWWSLRPIEALAKEVRELEEHNRELLNPATTRELTSLVRNLNRLLKSERERYDKYRTTLTDLTHSLKTPLXXLQXXLRSLRSEKMSVSDAEPVMLEQISRISQQIGYYLHRASMRGGTLLSRELHPVAPLLDNLTSALNKVYQRKGVNISLDISPEISFVGEQNDFVEVMGNVLDNACKYCLEFVEISARQTDEHLYIVVEDDGPGIPLSKREVIFDRGQRVDTLRPGQGVGLAVAREITEQYEGKIVAGESMLGGARMEVIFGRQHSAPKDE

This is one part of the list. Some results are limits rather than exact numbers.

This note sets out measurements from a collection of fitness landscapes (doi:10.1126/science.1257360).

Variants of B1 are the subject of the experiment. Kind of experiment: enrichment ratio after two sorts for PhoP signalling (ratio (wild type AVST 3.29)); higher = more functional. Particulars: with PhoP (E. coli).
Turning to PAWD, the enrichment ratio was at most 0.25.

Take IRER: the enrichment ratio is at most 0.25.

For the variant DWCF, the enrichment ratio was at most 0.25.

For the variant RQRH, the enrichment ratio was at most 0.25.

With QYDL, the enrichment ratio is at most 0.25.

DIMR: the enrichment ratio was at most 0.25. Under IWEY stands at most 0.25. As to VFLL, the enrichment ratio was at most 0.25.

On to IIRA, for which the enrichment ratio was at most 0.25. In the case of LIRE it was at most 0.25. On to ASFS, for which the enrichment ratio is at most 0.25.

As to WTII, the enrichment ratio was at most 0.25.

For QCRQ, the enrichment ratio is at most 0.25. On to DHMM, for which the enrichment ratio was at most 0.25.

With QFLR, the enrichment ratio is at most 0.25. Take VQKN: the enrichment ratio is at most 0.25.

For the variant FGTD, the enrichment ratio was at most 0.25.

With MSYH, the enrichment ratio was determined as 6.75. On to RQPS, for which the enrichment ratio was at most 0.25.

As for QYYH, the enrichment ratio was at most 0.25. Consider VGTS, for which the enrichment ratio came to 0.315. Under GNDQ stands at most 0.25; under EAHV, at most 0.25. DCWK: the enrichment ratio was at most 0.25.

On to GTVV, for which the enrichment ratio is at most 0.25. As to NAAH, the enrichment ratio is at most 0.25. As to GPMY, the enrichment ratio was at most 0.25.

In the case of FTFL, the enrichment ratio is at most 0.25. Turning to NQGE, the enrichment ratio was at most 0.25. Consider EKLF, for which the enrichment ratio is at most 0.25. For SCNK, the enrichment ratio was at most 0.25. NMAD: the enrichment ratio was at most 0.25. For the variant TWMY, the enrichment ratio is at most 0.25. With VRSH, the enrichment ratio is at most 0.25. With NIDP, the enrichment ratio was at most 0.25. With AIPC, the enrichment ratio was determined as 1.63. For the variant WPVF, the enrichment ratio is at most 0.25. In the case of SDCV it was 2.1; in that of MAHH, at most 0.25; in that of WAKN, at most 0.25. As to PPYS, the enrichment ratio was at most 0.25. In the case of IIWN it was at most 0.25; in that of NNHD, at most 0.25.

In the case of IYCH, the enrichment ratio was at most 0.25. In the case of HKHV it was at most 0.25; in that of TFTI, 10.2; in that of PGHC, at most 0.25. For the variant NRGR, the enrichment ratio was at most 0.25.

As to DWCW, the enrichment ratio was at most 0.25. Regarding LPMH, the enrichment ratio was at most 0.25. In the case of QDIT it was at most 0.25. Turning to KMVA, the enrichment ratio was at most 0.25. Consider FFNI, for which the enrichment ratio is at most 0.25. For SCWE, the enrichment ratio is at most 0.25.

With NEPC, the enrichment ratio was at most 0.25.

As for AFMY, the enrichment ratio was at most 0.25. In the case of WRNS it was at most 0.25. For GRQM, the enrichment ratio is at most 0.25. As to FTHL, the enrichment ratio is at most 0.25. With RFYK, the enrichment ratio was at most 0.25. Consider DDCW, for which the enrichment ratio was at most 0.25. VRNM: the enrichment ratio is at most 0.25. For the variant NLEY, the enrichment ratio was at most 0.25. Under HKLL stands 1.86; under IIHG, at most 0.25; under ARQL, at most 0.25. In the case of IDGF it was at most 0.25; in that of WWSH, at most 0.25. Under IAHY stands at most 0.25; under ECMK, at most 0.25; under QHKF, at most 0.25. As for PYGA, the enrichment ratio is at most 0.25.

For the variant ILQY, the enrichment ratio is at most 0.25. On to NQHF, for which the enrichment ratio is at most 0.25. On to MIAQ, for which the enrichment ratio worked out at 14.7. In the case of MKPA, the enrichment ratio was at most 0.25. As to WAFK, the enrichment ratio was at most 0.25. Under FMRQ stands at most 0.25; under WPCA, at most 0.25. On to EPTD, for which the enrichment ratio was at most 0.25. As to QCAH, the enrichment ratio is at most 0.25. As to TDMA, the enrichment ratio was 5.86.

As for QIAP, the enrichment ratio is at most 0.25. Take NWNQ: the enrichment ratio is at most 0.25. With PPLM, the enrichment ratio is at most 0.25.

Take YIKG: the enrichment ratio was at most 0.25. FSRY: the enrichment ratio was at most 0.25. VSIT: the enrichment ratio was at most 0.25. In the case of MKLC it was at most 0.25; in that of ERGT, at most 0.25. In the case of MYHI it was at most 0.25; in that of TTYG, 10.4.

With CFIL, the enrichment ratio is at most 0.25.

For YRTP, the enrichment ratio is at most 0.25.

For MAHK, the enrichment ratio is at most 0.25. In the case of PHYH it was at most 0.25; in that of QLSW, at most 0.25; in that of SDGQ, at most 0.25. In the case of LFCA it was at most 0.25; in that of FRKV, at most 0.25.

KQAC: the enrichment ratio was at most 0.25.

PVAQ: the enrichment ratio is at most 0.25. Turning to KGVK, the enrichment ratio was at most 0.25. For YDDS, the enrichment ratio is at most 0.25. Take NDNS: the enrichment ratio was at most 0.25.

For the variant PTWR, the enrichment ratio was at most 0.25.

Take LKCC: the enrichment ratio is at most 0.25. Take TGVM: the enrichment ratio was found to be 4.32. In the case of TFQF, the enrichment ratio was at most 0.25. TTFL: the enrichment ratio is at most 0.25. Under SKIA stands at most 0.25; under IVKW, at most 0.25; under VPNG, at most 0.25.

Consider PDPD, for which the enrichment ratio was at most 0.25. For the variant SLLN, the enrichment ratio was 5.28.

As to VEAE, the enrichment ratio is at most 0.25. For LRKD, the enrichment ratio was at most 0.25. Consider ALIL, for which the enrichment ratio is at most 0.25. KYHF: the enrichment ratio is at most 0.25. On to HNDI, for which the enrichment ratio was at most 0.25. EHLA: the enrichment ratio is at most 0.25.

Turning to IWCK, the enrichment ratio is at most 0.25. For the variant LNIP, the enrichment ratio was at most 0.25. Under QDRP stands at most 0.25; under TMDG, at most 0.25.

In the case of NFFR, the enrichment ratio is at most 0.25.

Consider LPYT, for which the enrichment ratio is at most 0.25. For HFKC, the enrichment ratio is at most 0.25. Under RSLF stands at most 0.25; under MCYG, at most 0.25. On to SCRF, for which the enrichment ratio was at most 0.25. DCGH: the enrichment ratio was at most 0.25. As for NNPT, the enrichment ratio is at most 0.25. On to SIMC, for which the enrichment ratio amounted to 19.4.

As for YTHG, the enrichment ratio was at most 0.25.

For the variant GCAH, the enrichment ratio was found to be 1.33. For the variant NPTW, the enrichment ratio was at most 0.25. Take ILSM: the enrichment ratio was at most 0.25.

Consider AFTW, for which the enrichment ratio was at most 0.25. As to PYTT, the enrichment ratio is at most 0.25. In the case of NQGS it was at most 0.25; in that of LTEW, at most 0.25; in that of KQCG, at most 0.25. Under IAHN stands at most 0.25; under QVAM, at most 0.25; under KLTI, at most 0.25. On to DTYP, for which the enrichment ratio is at most 0.25. In the case of RGPV it was at most 0.25. Under AQCY stands 0.265; under HICL, 1.46. As to LHMC, the enrichment ratio is at most 0.25. In the case of MFSH, the enrichment ratio was at most 0.25. Under FCHL stands at most 0.25.
